Measurements taken from PubChem BioAssay AID686978 (National Center for Advancing Translational Sciences (NCATS), 2013).
Values joined by “and” are separate entries in the source; they are usually repeats but may differ in a detail not shown here. Equal values may be shown once. Out of some 420,000 compounds screened, about 64,000 (15%) were called active. The shares of active, inactive and inconclusive entries below differ from those in the screen. Calls come from the whole dose curve; as a rule, active = well fitted inhibition curve with a large enough effect; inconclusive = small, poorly fitted or top-dose-only effect; inactive = flat fitted curve, though single readings scatter. Potencies beside an inconclusive call are fits to weak or partial responses and may not hold up.

Experiment: qHTS for Inhibitors of human tyrosyl-DNA phosphodiesterase 1 (TDP1): qHTS in cells in absence of CPT; note: nearly all actives have a fitted effect of over 55% in size
Details: DT40 Tdp1-/- hTDP1 cells, no CPT, ATP luminescence, 48 h; activity change, negative = growth inhibition: at 46.2 µM (top of the series)
How it was run: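 Cells were dispensed at 400 per well, compounds added by pin tool, plates incubated ≥48 hr at 37 °C, then CellTiter-Glo added for 30 min at room temperature before luminescence reading. Line: DT40 Tdp1-/- complemented with hTDP1; camptothecin omitted.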
% is set by controls: 0 for no effect and ±100 for the full control effect; potency is the fitted concentration of half-maximal effect; tags give direction and shape of the fitted curve.

Q: Which Potency does the source give for `O=C(Nc1ccc2c(c1)OCO2)C1CCCN(S(=O)(=O)c2cccs2)C1` (stereo unspecified) here?
A: inconclusive: 18.4 µM [inhibitor, single point]

Q: For `CCOc1ccc(NC(=O)N(CCN(C)C)C(C)c2cccnc2)cc1` (stereo unspecified), which “activity change, negative = growth inhibition” value is on record?
A: inactive: -0.0179%

Q: Which “activity change, negative = growth inhibition” value does the source give for `CC(C)(C)NC(=O)[C@]1(C)CCC[C@@]2(C)C3CC[C@@]4(C)C[C@]3(CCC21)CC4=O` (stereo partly specified) here?
A: inactive: -24.5%

Q: For `COc1ccc(Cc2c(C(C)(C)C)nc3ccc(C)cn23)c(C)c1`, which Potency is on record?
A: active: 13 µM

Q: For `CCCc1nc(SCC(=O)Nc2nc3c(s2)CCCC3)c2ccccc2n1`, which “activity change, negative = growth inhibition” value is on record?
A: inactive: -1.28%

Q: Which Potency does the source give for `Cc1cc(C)n(Cc2ccc(C(=O)N/N=C/c3ccc(-c4ccc([N+](=O)[O-])cc4)o3)o2)n1` here?
A: active: 10.3 µM

Q: For `COc1ccc(-c2cn[nH]c2-c2ccc(OC)cc2O)cc1`, which Potency is on record?
A: inconclusive: 13 µM [inhibitor, partial curve]

Q: Which activity change, negative = growth inhibition does the source give for `CCCCNC(=O)C1c2ccccc2OCC(=O)N1Cc1ccc2c(c1)OCO2` (stereo unspecified) here?
A: inconclusive: -32.3% [inhibitor]

Q: Which Potency does the source give for `Cc1cc(C)c2oc(C(=O)Nc3ccc(S(=O)(=O)Nc4nccc(C)n4)cc3)cc(=O)c2c1` here?
A: inactive and inconclusive: 29.1 µM [inhibitor, single point]

Q: For `O=C(Nc1nc2ccccc2s1)c1ccc([N+](=O)[O-])o1`, which Potency is on record?
A: active: 8.2 µM

Q: With `COc1ccc(-c2oc3cccnc3c2C#CCO)cc1` as the molecule, how does the Potency read?
A: inconclusive: 20.6 µM [inhibitor, single point]

Q: Which Potency does the source give for `CCC/C(=C1/c2ccccc2C(=O)N1c1ccccc1)c1ccc(O[C@@H]2CCCCO2)cc1` here?
A: active: 16.4 µM

Q: With `O=C(CSCc1ccc(F)cc1)Nc1nc2c(s1)CCCC2` as the molecule, how does the Potency read?
A: inconclusive: 20.6 µM [inhibitor, partial curve]

Q: With `COc1ccc(Nc2oc(/C=C/c3ccc(OC)c(OC)c3)nc2C#N)cc1` as the molecule, how does the “activity change, negative = growth inhibition” value read?
A: inactive: -2.8%

Q: Which Potency does the source give for `O=c1c(-c2ccco2)[n+]([O-])c2ccccc2n1OCc1ccccc1[N+](=O)[O-]` here?
A: inconclusive: 23.1 µM [inhibitor, single point]

Q: For `CC(=O)N/C(=C\c1ccccc1)C(=O)OCc1cc(C)ccc1C`, which “activity change, negative = growth inhibition” value is on record?
A: inactive: -2.18%

Q: With `COc1ccc(CN(C)S(=O)(=O)c2nnc(NC(=O)c3cccc(F)c3)s2)cc1` as the molecule, how does the Potency read?
A: inconclusive: 18.4 µM [inhibitor, single point]

Q: With `CC(C)NC(=O)c1cc(C2CCCCN2S(=O)(=O)c2ccc(F)cc2F)on1` (stereo unspecified) as the molecule, how does the Potency read?
A: inconclusive: 29.1 µM [inhibitor, single point]

Q: For `CSc1ccc(/C=C/c2ccnc3ccccc23)cc1`, which “activity change, negative = growth inhibition” value is on record?
A: inactive: -5.19%

Q: With `C=CCOC(=O)C1=C[C@@H](C2CCCCC2)C[C@@H](OCc2ccc(CO)cc2)O1` as the molecule, how does the Potency read?
A: inconclusive: 20.6 µM [inhibitor, partial curve]

Q: Which Potency does the source give for `COc1cccc(/C=N/NC(=O)C(=O)NCc2cccnc2)c1O` here?
A: inconclusive: 18.4 µM [inhibitor, single point]

Q: For `CCCn1c(CCC(=O)Nc2ccccc2OC)nc2cccnc21`, which Potency is on record?
A: inconclusive: 25.9 µM [inhibitor, partial curve]

Q: For `CC1CCN(CCCNC(=O)CCc2nnc3n(CCc4ccccc4)c(=O)c4ccccc4n23)CC1`, which Potency is on record?
A: active: 16.4 µM

Q: For `Cc1nc(-c2ccc(S(=O)(=O)Nc3ccc(Br)cc3Cl)s2)cs1`, which “activity change, negative = growth inhibition” value is on record?
A: inactive: -2.25%

Q: Which Potency does the source give for `Cc1noc(C)c1S(=O)(=O)N1CCN(Cc2ccc3c(c2)OCO3)CC1` here?
A: inconclusive: 10.3 µM [inhibitor, partial curve]

Q: For `CC(C)N(CCCNC(=O)c1nn(C)c2c1CS(=O)(=O)c1ccccc1-2)Cc1ccccc1`, which “activity change, negative = growth inhibition” value is on record?
A: inactive: -3.35%

Q: With `CC(C)C(C(=O)O)N1C(=O)/C(=C/C=C/c2ccco2)SC1=S` (stereo unspecified) as the molecule, how does the “activity change, negative = growth inhibition” value read?
A: inactive: -24.7%

Q: Which “activity change, negative = growth inhibition” value does the source give for `CCS(=O)(=O)N1CCC(C(=O)NCc2ccc(F)cc2)CC1` here?
A: inactive: -10.7%

Q: With `O=C(/C=C/[C@H]1O[C@@H](n2cnc3c(NC(=O)c4ccccc4)ncnc32)[C@H](O)[C@@H]1O)NCC1CCCCC1` as the molecule, how does the “activity change, negative = growth inhibition” value read?
A: inactive: 0.321%

Q: For `CCc1ccc(/C=C2/SC(=S)N(CCCC(=O)Nc3ccccc3C(=O)O)C2=O)cc1`, which “activity change, negative = growth inhibition” value is on record?
A: inactive: 11.8%

Q: Which Potency does the source give for `O=c1oc2ccccc2cc1-c1cn2cc(Cc3ccc(Br)cc3)sc2n1` here?
A: active: 0.58 µM

Q: Which Potency does the source give for `O=c1c2sc3ccccc3c2n(Cc2cccc(C(F)(F)F)c2)c(=O)n1Cc1ccc(F)cc1` here?
A: inconclusive: 23.1 µM [inhibitor, single point]

Q: For `CCN(CC)CCN(C)C1CCC(c2ccccc2)CC1` (stereo unspecified), which Potency is on record?
A: active: 20.6 µM

Q: Which “activity change, negative = growth inhibition” value does the source give for `CN(C)c1ncnc2c1ncn2[C@H]1CN(Cc2cccnc2)C[C@@H](CO)O1` here?
A: inactive: 0.647%

Q: Which Potency does the source give for `COc1cccc(-c2ccc(SCC(=O)c3ccccc3)nn2)c1` here?
A: inconclusive: 29.1 µM [inhibitor, single point]

Q: With `CCN1C(=O)[C@@H]2[C@@H]3CN(S(=O)(=O)c4ccc(C)cc4)[C@@H](c4cccc5ccccc45)[C@@H]3C(=O)C[C@@H]2C1=O` as the molecule, how does the Potency read?
A: inconclusive: 25.9 µM [inhibitor, single point]

Q: Which Potency does the source give for `Cc1ccc(-c2noc(CSc3nnc(-c4cccs4)n3C)n2)cc1` here?
A: inconclusive: 20.6 µM [inhibitor, single point]

Q: With `CC(=O)Nc1ccc(S(=O)(=O)NCC(=O)NCCCc2ccccc2)cc1` as the molecule, how does the Potency read?
A: inconclusive: 29.1 µM [inhibitor, single point]

Q: With `CCOC(=O)C1(CCc2ccccc2)CCN(Cc2cnc(N(C)C)s2)CC1` as the molecule, how does the Potency read?
A: inconclusive: 23.1 µM [inhibitor, single point]

Q: With `Cc1ccc(/C=N/NC(=O)NC2CCCCC2)o1` as the molecule, how does the Potency read?
A: inconclusive: 23.1 µM [inhibitor, single point]

Q: Which “activity change, negative = growth inhibition” value does the source give for `CN(Cc1ccon1)C(=O)CC1C(=O)NCCN1CC1CCCCC1` (stereo unspecified) here?
A: inactive: -7.84%

Q: With `COc1ccc(NC(=O)CC2C(=O)N(c3cccc(OC)c3)C(=O)N2Cc2ccc3c(c2)OCO3)cc1` (stereo unspecified) as the molecule, how does the Potency read?
A: inconclusive: 29.1 µM [inhibitor, single point]

Q: With `O=C(Nc1ccccc1)C1Cc2c(-c3ccc(Cl)cc3)ccnc2O1` (stereo unspecified) as the molecule, how does the Potency read?
A: inconclusive: 18.4 µM [inhibitor, single point]

Q: Which activity change, negative = growth inhibition does the source give for `COC(=O)c1[nH]c2ccccc2c1NC(=O)c1ccccc1F` here?
A: inconclusive: -33.1% [inhibitor]

Q: With `COc1ccccc1N1C(=O)S/C(=C\c2cccs2)C1=O` as the molecule, how does the Potency read?
A: inconclusive: 3.66 µM [inhibitor, partial curve]

Q: For `COc1ccc(-n2c3c(cc(C(=O)NCc4ccco4)c2=O)C(=O)CC(C)(C)C3)cc1`, which “activity change, negative = growth inhibition” value is on record?
A: inactive: -14%

Q: For `CCOC(=O)c1ccc(NC(=O)c2nc[nH]c2C(=O)N(C)CCO)cc1`, which “activity change, negative = growth inhibition” value is on record?
A: inactive: 8.72%

Q: For `Cc1ccc2nc(-c3cccnc3)c(NC3CCCC3)n2c1`, which Potency is on record?
A: active: 20.6 µM

Q: For `CC(C)(C)NC(=O)N1CCN(c2nc(-c3ccccc3)ns2)CC1`, which Potency is on record?
A: inconclusive: 23.1 µM [inhibitor, partial curve]

Q: Which Potency does the source give for `Cc1ccc(-c2cn(-c3ccc(Cl)cc3)c(S(=O)(=O)CC(=O)Nc3ccccc3)n2)cc1` here?
A: inconclusive: 29.1 µM [inhibitor, single point]

Q: With `COCCN(C(=O)Cn1nnc2ccccc21)C(C(=O)NC1CCCC1)c1cc(OC)ccc1OC` (stereo unspecified) as the molecule, how does the Potency read?
A: inconclusive: 0.0184 µM [inhibitor, full curve, poor fit]

Q: For `CCOC(=O)Cc1csc(NC(=O)COc2ccccc2)n1`, which “activity change, negative = growth inhibition” value is on record?
A: inactive: -7.66%

Q: Which “activity change, negative = growth inhibition” value does the source give for `CCOC(=O)C1CCCN(Cc2cn[nH]c2-c2ccc(F)cc2F)C1` (stereo unspecified) here?
A: inactive: -25%

Q: Which “activity change, negative = growth inhibition” value does the source give for `COc1ccc(S(=O)(=O)NNC(=O)Nc2ccc(F)cc2F)c(OC)c1` here?
A: inactive: -17.9%

Q: With `Cc1ccc(S(=O)(=O)N(C)c2cc(S(=O)(=O)N3CCC(C)CC3)c(C)cc2C)cc1` as the molecule, how does the Potency read?
A: inconclusive: 25.9 µM [inhibitor, single point]

Q: Which Potency does the source give for `COc1ccc(S(=O)(=O)c2nnn(-c3ccc(C)c(Cl)c3)c2C)cc1` here?
A: inconclusive: 29.1 µM [inhibitor, single point]

Q: For `COc1ccc(-c2cc3nc(NCCNC(C)=O)n(C)c(=O)c3s2)c(C)c1`, which Potency is on record?
A: inconclusive: 29.1 µM [inhibitor, single point]

Q: Which Potency does the source give for `CC1(C)CC(=O)C(C(N)=NC(=O)c2ccccc2)=C(O)C1` here?
A: inconclusive: 11.6 µM [inhibitor, partial curve]

Q: With `COc1ccc(C(C)=O)cc1CSc1ccc(S(=O)(=O)N2CCCCC2)cn1` as the molecule, how does the Potency read?
A: active: 16.4 µM

Q: For `CC(=O)c1ccc(N2CCN(C(=O)C3CCC3)CC2)cc1`, which “activity change, negative = growth inhibition” value is on record?
A: inactive: 0.255%

Q: For `CCOc1ccc(S(=O)(=O)N2CCC(C(=O)NCc3ccccn3)CC2)cc1Cl`, which “activity change, negative = growth inhibition” value is on record?
A: inactive: -12.9%

Q: Which Potency does the source give for `Cn1c(=O)c2c(nc(N3CCOCC3)n2C/C=C/c2ccccc2)n(C)c1=O` here?
A: inconclusive: 16.4 µM [inhibitor, partial curve, poor fit]

Q: For `Cn1c(=O)c2cc(NC(=O)CC(C)(C)C)ccc2n1-c1ccccc1F`, which Potency is on record?
A: active: 23.1 µM

Q: For `CC(C)CCNC(=O)C(c1cccnc1)N(CCc1ccccc1)C(=O)Cn1nnc2ccccc21` (stereo unspecified), which Potency is on record?
A: inconclusive: 20.6 µM [inhibitor, single point]

Q: For `OC(c1ccc(F)cc1)c1nc(-c2ccccc2)cs1` (stereo unspecified), which Potency is on record?
A: inconclusive: 29.1 µM [inhibitor, single point]

Q: With `COc1ccc2c(c1)OC[C@H]1[C@H]2N2C(=O)c3cc(C)ccc3NC(=O)[C@@]2(C)[C@H]1c1ccccc1` as the molecule, how does the Potency read?
A: inconclusive: 18.4 µM [inhibitor, single point]

Q: With `CCOC(=O)CC(=O)CSc1nc(CC)c(C)cc1C#N` as the molecule, how does the Potency read?
A: active: 13 µM

Q: Which Potency does the source give for `Cc1ccc(-n2c(SCC(N)=O)nc3c(c2=O)C2(CCCC2)Cc2ccccc2-3)cc1` here?
A: inconclusive: 18.4 µM [inhibitor, single point]

Q: Which Potency does the source give for `CCc1c(C)[nH]c2ccc(OC)cc2c1=S` here?
A: inconclusive: 25.9 µM [inhibitor, single point]

Q: Which Potency does the source give for `CCc1noc(C)c1C(=O)Nc1nc(-c2ccc(Cl)cc2Cl)c(C)s1` here?
A: inconclusive: 18.4 µM [inhibitor, single point]

Q: With `Cc1nc(=S)c2ccccc2[nH]1` as the molecule, how does the Potency read?
A: inconclusive: 29.1 µM [inhibitor, single point]
